Experimental data reported in ChEMBL document CHEMBL4888484, “Replenishing the malaria drug discovery pipeline: Screening and hit evaluation of the MMV Hit Generation Library 1 (HGL1) against asexual blood stage Plasmodium falciparum ,using a nano luciferase reporter read-out” (2022).
About 420 (8.8%) of roughly 4,800 compounds showed an effect of 50% or more. Some of the results follow.

The compounds below were run on Plasmodium falciparum (assay: Confirmatory screen in NF54 nanoGlo assay, in single point, at 2uM, 72h). Details: timepoint 72 hour.
Type: functional, Erythrocyte

SMILES	% Inhibition [%]
CC1CCN(C[C@H]2CCCCCN2C(=O)NCCc2ccccc2)CC1	34
O=C1C2CC=CCC2C(=O)N1CNc1ccc(Cl)cc1 (stereo not drawn)	-12
CCC(C#N)(CC)c1nc(-c2cc(N)nc3ccccc23)no1	-1
O=C(c1ccc(Cl)cc1)c1c[nH]c2c(F)cc(F)cc2c1=O	5
CC(C)COCn1cc(Br)c(=O)[nH]c1=O	-5
FC(F)(F)c1cc(Oc2cc(Oc3ccc(Cl)c(C(F)(F)F)c3)nc(Oc3ccc(Cl)c(C(F)(F)F)c3)n2)ccc1Cl	0
Cc1ccc(-c2noc(CCC(=O)NC[C@H]3CCCO3)n2)c(=O)n1C(C)C	-1
C[C@@]12CCCCN1CCCc1c2[nH]c2ccccc12	-15
COc1cccc(NC(=O)C2=Cc3cc(Cl)cc(OC)c3OC=C2)c1	5
CCCCOc1ncccc1CNC(=O)N1CCn2nc(C)nc2C1	-7
COc1cc(C)c2[nH]c3c(c(=O)c2c1)CN(CC(=O)Nc1ccc(C)c(F)c1)CC3	0
COc1ccc(CNC(=O)Cn2c(=O)n(CCc3cccs3)c(=O)c3ccccc32)cc1	5
Cc1nc2ccc(N(C)S(=O)(=O)c3cc(C(=O)O)cs3)cc2s1	-3
CC1CCN(c2nccnc2Oc2ccc(C(=O)NCc3ccccc3Cl)cc2)CC1	59
Cc1ncsc1CNc1nnc(CC(C)(C)C)o1	-3
CCOC(=O)C(NC(=O)Cc1c(Cl)cccc1Cl)C(=O)OCC	3
Cc1nsc(N2CCN(CC(C)O)C(C)C2)n1 (stereo not drawn)	-4
c1ccc(C2(c3nnc(-c4ccncc4)o3)CCOCC2)cc1	-2
COc1ccc(C(=O)Nc2ccc3c(c2)C(=O)Nc2cccnc2O3)cc1OC	46
COc1ccc2cccc(NC(=O)c3cc(-c4cc(OC)c(OC)c(OC)c4)n[nH]3)c2n1	64
CC1(C2CCN(C(=O)c3c(Cl)cccc3Cl)CC2)OCCO1	4
Cc1c(S(=O)(=O)NCCn2nc(C(F)(F)F)cc2C)cnn1C	6
COCCCC(=O)Nc1cc(C)c(Br)cn1	2

SMILES	% Inhibition [%]
CC(C)[C@@H]1CCc2ccccc2N1Cc1nc(N)nc(N(C)C)n1	-4
CC(C)[C@H](CN1CCOCC1)NC(=O)c1ncccn1	0
O=C(NCCC1=CCCCC1)c1c(-c2ccccc2)nc2n1CCS2(=O)=O	-3
CCCN1Cc2cccc(NS(=O)(=O)c3cc(C)ccc3Br)c2C1	2
CC1(C)CCc2ccccc2C1NC(=O)C1CC(=O)N(c2nccs2)C1 (stereo not drawn)	-9
CCc1ccccc1C(=O)NC[C@H]1CC[C@H](CN)CC1	3
COc1cc(CNCc2ccccn2)ccc1OCc1ccc(Cl)cc1Cl	3
Cc1ccc(S(=O)(=O)Cc2nc3cc(C)c(C)cc3[nH]c2=O)cc1	-1
Cc1cnc([C@H](C)NC(=O)c2conc2C(C)(C)N)s1	-1
O=C1CCCN1CCc1nc(-c2cc(F)ccc2F)cs1	-7
O=C(CN1CCN(Cc2ccccc2F)C1=O)NC1CCCCCCC1	-11
COc1cccc(CCC(=O)N2CCN3CCC2C3)c1F (stereo not drawn)	-15
O=C(c1ccc(Cl)c(Cl)c1)N1CCCc2cc(S(=O)(=O)N3CCCC3)ccc21	-8
CC(C)(C)OC(=O)NCC1CCCCC1C(F)(F)F (stereo not drawn)	0
Clc1ccc(-c2onc3c2CCCC3)cc1	2
Cn1cc(Br)c(C(=O)N2c3ccnn3C(C(F)(F)F)CC2c2ccccc2)n1 (stereo not drawn)	-2
Cc1nn(-c2ccccn2)c(O)c1C(c1ccccc1)c1c(C)nn(-c2ccccn2)c1O	90
Cc1ccc(-n2nc(N3CCN(C(=O)Cc4ccc(F)cc4)CC3)ccc2=O)cc1	4
Cc1cc(C)n(C(=O)Cn2nc(C(F)F)cc2C)n1	4
C[N+]12CCCCC1C(OC(=O)C1(c3ccccc3)CCCC1)CCC2 (stereo not drawn)	96
O=C(CN1C[C@@H](c2ccccc2)Oc2ccccc2C1=O)Nc1ccccc1	-16
Cc1cc(C)c2c(C(=O)N3CCN(C(=O)[C@H](C)O)CC3)cc(C3CC3)nc2c1	-14
CCn1cc(S(=O)(=O)N2CC(Oc3cccc(-c4nc(C)no4)c3)C2)cn1	2

SMILES	% Inhibition [%]
CCOC(=O)c1nc[nH]c1-n1nc(C)cc1C	-1
Cc1cccc(NC(=O)C(=O)N(C)[C@H]2CCCc3c2cnn3C)c1F	-17
Oc1ccc(-n2c(-c3ccccc3)ccc2-c2ccccc2)cc1	2
CCOC(=O)CCn1cc(F)c(=O)[nH]c1=O	77
CCCN1CCN(CC(=O)Nc2sccc2C#N)c2cc(F)ccc21	2
CCS(=O)(=O)N1CCN(c2c(C)n(-c3ccccc3)c(=O)n(C)c2=O)CC1	2
CC(CNC(=O)NCC(O)C1CC1)c1ccc(F)c(F)c1 (stereo not drawn)	3
COc1ccc(CC(=O)N2N=C(C)C[C@]2(O)c2cccnc2)cc1	45
Cc1ccccc1CNC(=O)[C@H]1CCCN(c2nc3ccccc3[nH]c2=O)C1	-1
COc1ccc(S(=O)(=O)Nc2c(C)ccc3nsnc23)cc1OC	4
CCCNC(=O)C[C@H](C)CC(=O)NCCc1ccc(OC)c(OC)c1	4
O=S(=O)(c1ccc(Br)cc1)n1ccc(C2CC2)n1	-2
CC(C)N(CC(=O)Nc1nccs1)Cc1ccccn1	68
Cc1ccc(-c2c[n+](-c3ccc(OC(F)F)cc3)c3n2CCCCC3)cc1	67
CN(Cc1ccsc1)C(=O)c1cc2ccccc2[nH]1	35
NC(=O)c1ccc(COc2ccc3c(c2)CCC3=O)cc1	5
Nc1c(Br)cc(Br)c(Cl)c1Cl	-9
N#CC1(CNC(=O)CNC(=O)C2C3CCCCC32)CC1 (stereo not drawn)	0
O=c1[nH]c2nc(N3CCC(N4CCCCC4)CC3)ncc2c(=O)n1-c1ccc2c(c1)OCO2	-9
O=C(C1CCN(c2cncc3nnnn23)CC1)N1CCC(c2ccccc2)CC1	-4
COCc1nsc(N2CCC(c3ccccc3)CC2C)n1 (stereo not drawn)	1
CC(C)(C)[C@H]1CCc2c(sc(NC(=O)C3(F)C(F)(F)C(F)(F)C(F)(F)C(F)(F)C3(F)F)c2C#N)C1	50
